Test results reported in US4451284A, “Derivatives of 2-nitro-4- or -5-pyridyloxyphenylphosphonic acid, the preparation thereof, the use thereof as herbicides and/or plant growth regulators” (Ciba-Geigy Corporation, priority 1981, dated 1984).

Tested on: soya bean plants
Test: Regulation of the growth of soya bean plants
Conditions: 0.1, 0.5 and 1.5 kg a.i./ha, 25% emulsifiable concentrate, about 5 weeks after application
Excerpt: (a) Soya beans of the "Hark" variety are sown in plastic containers in a mixture of earth/peat/sand (6:3:1). The containers are put into a climatic chamber and the plants develop to the 5-6 trefoil leaf stage after about 5 weeks by optimum control of temperature, light, fertilisation and watering. The plants are then sprayed until wet at rates of application of 0.1, 0.5 and 1.5 kg a.i./ha with the aqueous spray mixture prepared from a compound of formula I formulated as a 25% emulsifiable concentrate. Evaluation is made about 5 weeks after application by comparing the average growth in height and the yield of harvested pods with those of untreated controls (=100%).
(b) Under the same test conditions as in (a), but using rates of application of 0.08 to 4 a.i./ha, the following results are obtained e.g. with 2-nitro-5-(5'-trifluoromethyl-2'-pyridyloxy)phenylphosphonic acid (compound 3): […]

## COP(=O)(OC)c1cc(Oc2ccc(C(F)(F)F)cn2)ccc1[N+](=O)[O-] [Compound 1, Dimethyl 2-nitro-5-(5'-trifluoromethyl-2'-pyridyloxy)phenylphosphonate]
  growth regulation effectiveness in words (growth in height and yield of harvested pods): very effective
